# From the supplement of paper PMC8728848
# The other results are listed elsewhere or left out.
# Tests used:
# Assay in all cases: glycan array binding signal (z-score within array); higher = stronger binding
# Conditions in all cases: glycan notation: IUPAC condensed, linker removed
# [1] = molecular target: Gal(a1-3)Gal(b1-4)GlcNAc
# Outline: (§1)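 Glycan array binding is given as a within-array Z-score, which can be read as non-binding when negative. The arrays, 3228 of them, came from the Consortium for Functional Glycomics database and were retained only where the protein sequence was available. Z-scores were averaged across arrays of the same protein sequence at different concentrations or buffers and across linkers.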
# [2] = molecular target: Gal(a1-3)Gal(b1-4)GlcNAc(b1-2)Man
# Outline: as §1
# [3] = molecular target: Gal(a1-3)Gal(b1-4)GlcNAc(b1-2)Man(a1-3)[Gal(a1-3)Gal(b1-4)GlcNAc(b1-2)Man(a1-6)]Man(b1-4)GlcNAc(b1-4)GlcNAc
# Outline: as §1
# [4] = molecular target: Gal(a1-3)Gal(b1-4)GlcNAc(b1-3)GalNAc
# Outline: as §1
# [5] = molecular target: Gal(a1-3)Gal(b1-4)GlcNAc(b1-6)GalNAc
# Outline: as §1
# [6] = molecular target: Gal(a1-3)Gal(b1-4)[Fuc(a1-3)]GlcNAc
# Outline: as §1
# [7] = molecular target: Gal(a1-3)Gal(b1-4)[Fuc(a1-3)]GlcNAc(b1-2)Man(a1-3)[Gal(a1-3)Gal(b1-4)[Fuc(a1-3)]GlcNAc(b1-2)Man(a1-6)]Man(b1-4)GlcNAc(b1-4)GlcNAc
# Outline: as §1
# [8] = molecular target: Gal(a1-3)GalNAc
# Outline: as §1
# [9] = molecular target: Gal(a1-3)[Gal(a1-4)]Gal(b1-4)GlcNAc
# Outline: as §1
# [10] = molecular target: Gal(a1-4)Gal(b1-3)GlcNAc(b1-2)Man(a1-3)[Gal(a1-4)Gal(b1-3)GlcNAc(b1-2)Man(a1-6)]Man(b1-4)GlcNAc(b1-4)GlcNAc
# Outline: as §1
# [11] = molecular target: Gal(a1-4)Gal(b1-4)Glc
# Outline: as §1
# [12] = molecular target: Gal(a1-4)Gal(b1-4)GlcNAc
# Outline: as §1
# [13] = molecular target: Gal(a1-4)Gal(b1-4)GlcNAc(b1-2)Man(a1-3)[Gal(a1-4)Gal(b1-4)GlcNAc(b1-2)Man(a1-6)]Man(b1-4)GlcNAc(b1-4)GlcNAc
# Outline: as §1
# [14] = molecular target: Gal(a1-4)Gal(b1-4)GlcNAc(b1-3)Gal(b1-4)Glc
# Outline: as §1
# [15] = molecular target: Gal(a1-4)GlcNAc
# Outline: as §1
# [16] = molecular target: Gal(a1-6)Glc
# Outline: as §1
# [17] = molecular target: Gal(b1-2)Gal
# Outline: as §1
# [18] = molecular target: Gal(b1-3)Gal
# Outline: as §1
# [19] = molecular target: Gal(b1-3)Gal(b1-4)GlcNAc
# Outline: as §1
# [20] = molecular target: Gal(b1-3)GalNAc
# Outline: as §1
# [21] = molecular target: Gal(b1-3)GalNAc(a1-3)[Fuc(a1-2)]Gal(b1-4)Glc
# Outline: as §1
# [22] = molecular target: Gal(b1-3)GalNAc(a1-3)[Fuc(a1-2)]Gal(b1-4)GlcNAc
# Outline: as §1
# [23] = molecular target: Gal(b1-3)GalNAc(b1-3)Gal
# Outline: as §1
# [24] = molecular target: Gal(b1-3)GalNAc(b1-3)Gal(a1-4)Gal(b1-4)Glc
# Outline: as §1
# [25] = molecular target: Gal(b1-3)GalNAc(b1-4)Gal(b1-4)Glc
# Outline: as §1
# [26] = molecular target: Gal(b1-3)GalNAc(b1-4)[Neu5Ac(a2-3)]Gal(b1-4)Glc
# Outline: as §1
# [27] = molecular target: Gal(b1-3)GlcNAc
# Outline: as §1
# [28] = molecular target: Gal(b1-3)GlcNAc(a1-3)Gal(b1-4)GlcNAc
# Outline: as §1
# [29] = molecular target: Gal(b1-3)GlcNAc(a1-6)Gal(b1-4)GlcNAc
# Outline: as §1
# [30] = molecular target: Gal(b1-3)GlcNAc(b1-2)Man
# Outline: as §1
# [31] = molecular target: Gal(b1-3)GlcNAc(b1-2)Man(a1-3)[Gal(b1-3)GlcNAc(b1-2)Man(a1-6)]Man(b1-4)GlcNAc(b1-4)GlcNAc
# Outline: as §1
# [32] = molecular target: Gal(b1-3)GlcNAc(b1-2)Man(a1-3)[Gal(b1-3)GlcNAc(b1-2)Man(a1-6)]Man(b1-4)GlcNAc(b1-4)[Fuc(a1-6)]GlcNAc
# Outline: as §1
# [33] = molecular target: Gal(b1-3)GlcNAc(b1-2)Man(a1-3)[GlcNAc(b1-4)][Gal(b1-3)GlcNAc(b1-2)Man(a1-6)]Man(b1-4)GlcNAc(b1-4)GlcNAc
# Outline: as §1
# [34] = molecular target: Gal(b1-3)GlcNAc(b1-2)[Gal(b1-3)GlcNAc(b1-6)]Man(a1-6)[Gal(b1-3)GlcNAc(b1-2)Man(a1-3)]Man(b1-4)GlcNAc(b1-4)GlcNAc
# Outline: as §1
# [35] = molecular target: Gal(b1-3)GlcNAc(b1-3)Gal(b1-3)GlcNAc
# Outline: as §1
# [36] = molecular target: Gal(b1-3)GlcNAc(b1-3)Gal(b1-4)Glc
# Outline: as §1
# [37] = molecular target: Gal(b1-3)GlcNAc(b1-3)Gal(b1-4)GlcNAc
# Outline: as §1
binder,measurement,setting,value
"AT1G15820(2) (Arabidopsis thaliana), Q9LMQ2 (protein) MAMAVSGAVLSGLGSSFLTGGKRGATALASGVGTGAQRVGRKTLIVAAAAAQPKKSWIPAVKGGGNFLDPEWLDGSLPGDFGFDPLGLGKDPAFLKWYREAELIHGRWAMAAVLGIFVGQAWSGVAWFEAGAQPDAIAPFSFGSLLGTQLLLMGWVESKRWVDFFNPDSQSVEWATPWSKTAENFANYTGDQGYPGGRFFDPLGLAGKNRDGVYEPDFEKLERLKLAEIKHSRLAMVAMLIFYFEAGQGKTPLGALGL",glycan array binding signal (z-score),[1],-0.28
same,glycan array binding signal (z-score),[2],-0.301
same,glycan array binding signal (z-score),[3],-0.162
same,glycan array binding signal (z-score),[4],-0.257
same,glycan array binding signal (z-score),[5],-0.383
same,glycan array binding signal (z-score),[6],-0.435
same,glycan array binding signal (z-score),[7],-0.502
same,glycan array binding signal (z-score),[8],3.12
same,glycan array binding signal (z-score),[9],9.8
same,glycan array binding signal (z-score),[10],0.677
same,glycan array binding signal (z-score),[11],2.16
same,glycan array binding signal (z-score),[12],1.09
same,glycan array binding signal (z-score),[13],-0.114
same,glycan array binding signal (z-score),[14],-0.532
same,glycan array binding signal (z-score),[15],-0.399
same,glycan array binding signal (z-score),[16],0.096
same,glycan array binding signal (z-score),[17],0.453
same,glycan array binding signal (z-score),[18],-0.507
same,glycan array binding signal (z-score),[19],-0.298
same,glycan array binding signal (z-score),[20],0.218
same,glycan array binding signal (z-score),[21],-0.146
same,glycan array binding signal (z-score),[22],0.067
same,glycan array binding signal (z-score),[23],-0.009
same,glycan array binding signal (z-score),[24],-0.485
same,glycan array binding signal (z-score),[25],2.89
same,glycan array binding signal (z-score),[26],-0.095
same,glycan array binding signal (z-score),[27],0.12
same,glycan array binding signal (z-score),[28],-0.509
same,glycan array binding signal (z-score),[29],-0.545
same,glycan array binding signal (z-score),[30],-0.413
same,glycan array binding signal (z-score),[31],0.477
same,glycan array binding signal (z-score),[32],0.282
same,glycan array binding signal (z-score),[33],-0.114
same,glycan array binding signal (z-score),[34],-0.324
same,glycan array binding signal (z-score),[35],-0.145
same,glycan array binding signal (z-score),[36],-0.032
same,glycan array binding signal (z-score),[37],-0.405
